From paper PMC6220254
Results are given in words; binding and its absence hold for the method and conditions named. Binding seen in cells or lysates may run through a third protein. Some binding calls cover weakened binding; strength is not graded here.

The chains behind the UniProt entries cited, without tags or fusion partners. Where a name states a change or a piece, a line headed by the entry shows the natural chain unless it says otherwise.
UniProt O88522: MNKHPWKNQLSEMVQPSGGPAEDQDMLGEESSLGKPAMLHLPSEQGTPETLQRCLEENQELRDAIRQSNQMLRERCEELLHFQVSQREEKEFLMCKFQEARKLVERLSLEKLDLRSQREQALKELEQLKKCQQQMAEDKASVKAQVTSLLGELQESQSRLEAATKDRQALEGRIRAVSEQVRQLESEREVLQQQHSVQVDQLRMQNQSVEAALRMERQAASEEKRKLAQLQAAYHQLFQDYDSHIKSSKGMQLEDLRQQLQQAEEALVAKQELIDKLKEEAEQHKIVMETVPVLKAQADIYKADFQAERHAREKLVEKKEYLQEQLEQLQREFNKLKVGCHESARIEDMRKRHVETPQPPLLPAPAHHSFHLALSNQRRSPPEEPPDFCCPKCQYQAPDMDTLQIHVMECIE
UniProt Q60989: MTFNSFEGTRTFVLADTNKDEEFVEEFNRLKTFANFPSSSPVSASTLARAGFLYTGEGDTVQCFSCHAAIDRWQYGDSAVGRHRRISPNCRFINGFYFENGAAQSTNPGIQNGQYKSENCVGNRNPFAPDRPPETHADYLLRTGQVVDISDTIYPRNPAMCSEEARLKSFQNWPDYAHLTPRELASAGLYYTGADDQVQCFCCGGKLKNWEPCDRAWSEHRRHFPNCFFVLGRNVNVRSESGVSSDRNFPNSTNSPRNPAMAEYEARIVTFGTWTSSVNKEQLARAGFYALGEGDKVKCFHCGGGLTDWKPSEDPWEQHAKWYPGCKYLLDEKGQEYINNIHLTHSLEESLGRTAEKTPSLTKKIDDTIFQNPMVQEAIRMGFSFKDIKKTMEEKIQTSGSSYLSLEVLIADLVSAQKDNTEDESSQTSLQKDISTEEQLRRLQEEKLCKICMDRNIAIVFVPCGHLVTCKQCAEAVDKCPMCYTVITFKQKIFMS
UniProt Q60680: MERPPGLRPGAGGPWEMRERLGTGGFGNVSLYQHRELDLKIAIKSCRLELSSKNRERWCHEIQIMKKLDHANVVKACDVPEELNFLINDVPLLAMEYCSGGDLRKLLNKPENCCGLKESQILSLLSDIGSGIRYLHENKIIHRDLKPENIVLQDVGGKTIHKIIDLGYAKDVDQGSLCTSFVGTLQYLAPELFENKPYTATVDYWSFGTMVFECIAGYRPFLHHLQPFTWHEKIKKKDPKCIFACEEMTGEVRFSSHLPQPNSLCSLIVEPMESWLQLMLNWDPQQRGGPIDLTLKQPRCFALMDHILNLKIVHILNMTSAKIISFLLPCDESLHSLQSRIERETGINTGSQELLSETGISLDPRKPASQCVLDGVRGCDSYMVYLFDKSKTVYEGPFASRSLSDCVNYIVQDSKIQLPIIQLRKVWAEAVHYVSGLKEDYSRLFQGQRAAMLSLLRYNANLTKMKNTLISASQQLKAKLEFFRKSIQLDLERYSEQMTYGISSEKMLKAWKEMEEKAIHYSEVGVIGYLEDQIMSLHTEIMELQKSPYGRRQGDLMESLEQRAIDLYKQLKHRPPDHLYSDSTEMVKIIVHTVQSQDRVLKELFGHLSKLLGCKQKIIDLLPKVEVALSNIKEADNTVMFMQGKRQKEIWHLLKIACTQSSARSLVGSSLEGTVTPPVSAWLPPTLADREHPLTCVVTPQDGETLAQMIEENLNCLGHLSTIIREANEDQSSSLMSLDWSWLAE

T1: myb-like SWIRM and MPN domains 1 (MYSM1) (mouse (endogenous in BMDMs)) (UniProt Q69Z66)
T1 sequence: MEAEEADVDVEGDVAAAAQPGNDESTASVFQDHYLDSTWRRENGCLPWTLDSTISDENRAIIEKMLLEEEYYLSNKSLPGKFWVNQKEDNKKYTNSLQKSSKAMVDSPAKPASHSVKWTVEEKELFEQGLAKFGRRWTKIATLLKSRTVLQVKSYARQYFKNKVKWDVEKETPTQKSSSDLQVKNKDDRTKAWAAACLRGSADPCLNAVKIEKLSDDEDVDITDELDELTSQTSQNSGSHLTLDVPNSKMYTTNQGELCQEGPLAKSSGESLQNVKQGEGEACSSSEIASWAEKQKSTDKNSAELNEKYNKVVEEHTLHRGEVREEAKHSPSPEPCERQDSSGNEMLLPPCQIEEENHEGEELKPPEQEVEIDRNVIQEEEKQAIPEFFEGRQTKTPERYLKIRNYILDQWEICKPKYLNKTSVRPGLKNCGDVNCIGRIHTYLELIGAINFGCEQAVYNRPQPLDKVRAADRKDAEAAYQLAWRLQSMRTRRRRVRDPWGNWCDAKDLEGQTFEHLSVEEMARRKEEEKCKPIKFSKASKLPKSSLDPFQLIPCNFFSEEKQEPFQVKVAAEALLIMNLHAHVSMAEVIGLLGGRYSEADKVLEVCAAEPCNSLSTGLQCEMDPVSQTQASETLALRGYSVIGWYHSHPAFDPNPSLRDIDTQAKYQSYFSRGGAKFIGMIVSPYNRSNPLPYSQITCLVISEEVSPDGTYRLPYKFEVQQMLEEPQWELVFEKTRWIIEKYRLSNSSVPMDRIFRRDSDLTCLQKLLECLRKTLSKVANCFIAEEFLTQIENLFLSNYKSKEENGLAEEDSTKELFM


These molecules were tested against T1, myb-like SWIRM and MPN domains 1 (MYSM1) (mouse (endogenous in BMDMs)) (assay: co-IP; anti-MYSM1 immunoprecipitation (Fig. 4b; Fig. 2c: HOIP, MYSM1 or RIP2 immunoprecipitates) from cytoplasmic fractions of BMDMs stimulated with L18-MDP; immunoblot).

| binding | Molecule |
| --- | --- |
| no binding | NEMO (from UniProt O88522 1-412) |
| binds | XIAP (from UniProt Q60989 1-496) (enzyme) |
| no binding | IKK complex (NEMO, IKKα/β) (from UniProt Q60680 1-745; O88351 1-757; O88522 1-412) |
| no binding | TAB2 (protein, UniProt Q99K90 1-693) MAQGSHQIDFQVLHDLRQKFPEVPEVVVSRCMLQNNNNLDACCAVLSQESTRYLYGEGDLNFSDESGISGLRNHMTSLNLDLQSQNVYHHGREGSRVNGSRTLTHSVSDGQLHGGQSNNELFQQEPQTAPAQVPQGFNVFGMPSTSGASNSTPHLGFHLGSKGTSNLSQQTPRFNPIMVTLAPNIQTGRSTPTSLHIHGVPPPVLNSPQGNSIYIRPYITTPSGTARQTQQHSGWVSQFNPMNPQQAYQPSQPGPWTTYPASNPLPHTSTQQPNQQGHQTSHVYMPISSPTTPQPPTIHSSGSSQSSAHSQYNIQNISTGPRKNQIEIKLEPPQRNSSSKLRSSGPRTASTSSLVNSQTLNRNQPTVYIAASPPNTDEMISRSQPKVYISANATAGDEQGMRNQPTLFISTNSGPSAASRNMSGQVSMGPAFIHHHPPKSRVLGGNSATSPRVVVTQPNTKYTFKITVSPNKPPAVSPGVVSPTFELTNLLNHPDHYVETENIQHLTDPALAHVDRISEARKLSMGSDDAAYTQALLVHQKARMERLQRELEMQKKKLDKLKSEVNEMENNLTRRRLKRSNSISQIPSLEEMQQLRSCNRQLQIDIDCLTKEIDLFQARGPHFNPSAIHNFYDNIGFVGPVPPKPKDQRSTIKAPKTQDAEDEEGAQWNCTACTFLNHPALIRCEQCEMPRHF |
| no binding | TAK1 (enzyme, UniProt Q62073 1-579) MSTASAASSSSSSSASEMIEAPSQVLNFEEIDYKEIEVEEVVGRGAFGVVCKAKWRAKDVAIKQIESESERKAFIVELRQLSRVNHPNIVKLYGACLNPVCLVMEYAEGGSLYNVLHGAEPLPYYTAAHAMSWCLQCSQGVAYLHSMQPKALIHRDLKPPNLLLVAGGTVLKICDFGTACDIQTHMTNNKGSAAWMAPEVFEGSNYSEKCDVFSWGIILWEVITRRKPFDEIGGPAFRIMWAVHNGTRPPLIKNLPKPIESLMTRCWSKDPSQRPSMEEIVKIMTHLMRYFPGADEPLQYPCQYSDEGQSNSATSTGSFMDIASTNTSNKSDTNMEQVPATNDTIKRLESKLLKNQAKQQSESGRLSLGASRGSSVESLPPTSEGKRMSADMSEIEARIVATAGNGQPRRRSIQDLTVTGTEPGQVSSRSSSPSVRMITTSGPTSEKPARSHPWTPDDSTDTNGSDNSIPMAYLTLDHQLQPLAPCPNSKESMAVFEQHCKMAQEYMKVQTEIALLLQRKQELVAELDQDEKDQQNTSRLVQEHKKLLDENKSLSTYYQQCKKQLEVIRSQQQKRQGTS |
| no binding | CYLD (enzyme, UniProt Q80TQ2 1-952) MSSGLWSQEKVTSPYWEERIFYLLLQECSVTDKQTQKLLKVPKGSIGQYIQDRSVGHSRVPSTKGKKNQIGLKILEQPHAVLFVDEKDVVEINEKFTELLLAITNCEERLSLFRNRLRLSKGLQVDVGSPVKVQLRSGEEKFPGVVRFRGPLLAERTVSGIFFGVELLEEGRGQGFTDGVYQGKQLFQCDEDCGVFVALDKLELIEDDDNGLESDFAGPGDTMQVEPPPLEINSRVSLKVGESTESGTVIFCDVLPGKESLGYFVGVDMDNPIGNWDGRFDGVQLCSFASVESTILLHINDIIPDSVTQERRPPKLAFMSRGVGDKGSSSHNKPKVTGSTSDPGSRNRSELFYTLNGSSVDSQQSKSKNPWYIDEVAEDPAKSLTEMSSDFGHSSPPPQPPSMNSLSSENRFHSLPFSLTKMPNTNGSMAHSPLSLSVQSVMGELNSTPVQESPPLPISSGNAHGLEVGSLAEVKENPPFYGVIRWIGQPPGLSDVLAGLELEDECAGCTDGTFRGTRYFTCALKKALFVKLKSCRPDSRFASLQPVSNQIERCNSLAFGGYLSEVVEENTPPKMEKEGLEIMIGKKKGIQGHYNSCYLDSTLFCLFAFSSALDTVLLRPKEKNDIEYYSETQELLRTEIVNPLRIYGYVCATKIMKLRKILEKVEAASGFTSEEKDPEEFLNILFHDILRVEPLLKIRSAGQKVQDCNFYQIFMEKNEKVGVPTIQQLLEWSFINSNLKFAEAPSCLIIQMPRFGKDFKLFKKIFPSLELNITDLLEDTPRQCRICGGLAMYECRECYDDPDISAGKIKQFCKTCSTQVHLHPRRLNHSYHPVSLPKDLPDWDWRHGCIPCQKMELFAVLCIETSHYVAFVKYGKDDSAWLFFDSMADRDGGQNGFNIPQVTPCPEVGEYLKMSLEDLHSLDSRRIQGCARRLLCDAYMCMYQSPTMSLYK |
| no binding | TAB3 (protein, UniProt Q571K4 1-716) MAQNSPQLDIQVLHDLRQRFPEIPEGVVSQCMLQNNNNLEACCRALSQESSKYLYMEYHSPEDNRMNRNRLLHINLGIHSPSSYHPGDGAHLNGGRTLVHSSSDGHIDPQHTAGKQLICLVQEPHSAPAVVAATPNYNPFFMNEQNRSAATPPSQPPQQPSSMQTGMNPSAMQGPSPPPPPPSYMHIPRYSTNPITVTVSQNLPSGQTVPRALQILPQIPSNLYGSPGSIFIRQTSQSSSGRQTPQNAPWQSSPQGPVPHYSQRPLPVYPHQQNYQPSQYSPKQQQIPQSVYHSPPPSQCPSPFSSPQHQVQPPQLGHPSSHVFMPPSPSTTPPHLYQQGPPSYQKPGSHSVAYLPYTASSLPKGSMKKIEITVEPSQRPGTAITRSPSPISNQPSPRNQHSLYTATTPPSSSPSRGISSQPKPPFSVNPVYITYTQPTGPSCAPSPSPRVIPNPTTVFKITVGRATTENLLNLVDQEERSAAPEPIQPISVIPGSGGEKGNHKYQRSSSSGSDDYAYTQALLLHQRARMERLAKQLKLEKEELERLKAEVNSMEHDLMQRRLRRVSCTTAIPTPEEMTRLRSTNRQLQINVDCTLKEVDLLQSRGNFDPKAINNFYDHIEPGPVVPPKPSKKDSSDSCAIERKARRISVTSKAPVDIHDAQAAAADEHLSICKQSARTQPRDEDYEGAPWNCDSCTFLNHPALNRCEQCEMPRYT |
| binds | NOD2 (receptor, UniProt Q8K3Z0 1-1020) MRSSCCDMCSQEEFQAQRSQLVALLISGSLEGFESILDWLLSWDVLSREDYEGLSLPGQPLSHSARRLLDTVWNKGVWGCQKLLEAVQEAQANSHTFELYGSWDTHSLHPTRDLQSHRPAIVRRLYNHVEAMLELAREGGFLSQYECEEIRLPIFTSSQRARRLLDLAAVKANGLAAFLLQHVRELPAPLPLPYEAAECQKFISKLRTMVLTQSRFLSTYDGSENLCLEDIYTENILELQTEVGTAGALQKSPAILGLEDLFDTHGHLNRDADTILVVGEAGSGKSTLLQRLHLLWATGRSFQEFLFIFPFSCRQLQCVAKPLSLRTLLFEHCCWPDVAQDDVFQFLLDHPDRVLLTFDGLDEFKFRFTDRERHCSPIDPTSVQTLLFNLLQGNLLKNACKVLTSRPDAVSALLRKFVRTELQLKGFSEEGIQLYLRKHHREPGVADRLIQLIQATSALHGLCHLPVFSWMVSRCHRELLLQNRGFPTTSTDMYLLILQHFLLHASPPDSSPLGLGPGLLQSRLSTLLHLGHLALRGLAMSCYVFSAQQLQAAQVDSDDISLGFLVRAQSSVPGSKAPLEFLHITFQCFFAAFYLAVSADTSVASLKHLFSCGRLGSSLLGRLLPNLCIQGSRVKKGSEAALLQKAEPHNLQITAAFLAGLLSQQHRDLLAACQVSERVLLQRQARARSCLAHSLREHFHSIPPAVPGETKSMHAMPGFIWLIRSLYEMQEEQLAQEAVRRLDIGHLKLTFCRVGPAECAALAFVLQHLQRPVALQLDYNSVGDVGVEQLRPCLGVCTALYLRDNNISDRGARTLVECALRCEQLQKLALFNNKLTDACACSMAKLLAHKQNFLSLRVGNNHITAAGAEVLAQGLKSNTSLKFLGFWGNSVGDKGTQALAEVVADHQNLKWLSLVGNNIGSMGAEALALMLEKNKSLEELCLEENHICDEGVYSLAEGLKRNSTLKFLKLSNNGITYRGAEALLQALSRNSAILEVWLRGNTFSLEEIQTLSSRDARLLL |
| no binding | A20 (enzyme, UniProt Q60769 1-775) MAEQLLPQALYLSNMRKAVKIRERTPEDIFKPTNGIIYHFKTMHRYTLEMFRTCQFCPQFREIIHKALIDRSVQASLESQKKLNWCREVRKLVALKTNGDGNCLMHAACQYMWGVQDTDLVLRKALCSTLKETDTRNFKFRWQLESLKSQEFVETGLCYDTRNWNDEWDNLVKMASADTPAARSGLQYNSLEEIHIFVLSNILRRPIIVISDKMLRSLESGSNFAPLKVGGIYLPLHWPAQECYRYPIVLGYDSQHFVPLVTLKDSGPELRAVPLVNRDRGRFEDLKVHFLTDPENEMKEKLLKEYLIVMEIPVQGWDHGTTHLINAAKLDEANLPKEINLVDDYFELVQHEYKKWQENSDQARRAAHAQNPLEPSTPQLSLMDIKCETPNCPFFMSVNTQPLCHECSERRQKNQSKLPKLNSKLGPEGLPGVGLGSSNWSPEETAGGPHSAPPTAPSLFLFSETTAMKCRSPGCPFTLNVQHNGFCERCHARQINASHTADPGKCQACLQDVTRTFNGICSTCFKRTTAEPSSSLTSSIPASCHQRSKSDPSQLIQSLTPHSCHRTGNVSPSGCLSQAARTPGDRAGTSKCRKAGCMYFGTPENKGFCTLCFIEYRENKQSVTASEKAGSPAPRFQNNVPCLGRECGTLGSTMFEGYCQKCFIEAQNQRFHEARRTEEQLRSSQHRDMPRTTQVASRLKCARASCKNILACRSEELCMECQHLSQRVGSVAHRGEPTPEEPPKQRCRAPACDHFGNAKCNGYCNECYQFKQMYG |
